Source: patent US20260158070A1, “COMPOSITIONS AND METHODS FOR THE TREATMENT AND DIAGNOSIS OF CANCERS ASSOCIATED WITH SURFACE K-RAS” (UNIVERSITY OF MARYLAND, BALTIMORE, priority 2023, published 2026)
“Also recorded” adds a separate entry of the source. Like-named read-outs stand apart in the source and are kept apart here.

Assays:
[1] = test system: Additional G12D K-Ras tumor cell lines; assay: Flow cytometry surface staining, multiple tumor cell lines (FIG. 2f); type: cell-based
MiaPaca-2 = assay: Flow cytometry surface staining with anti-K-Ras antibodies; type: cell-based; conditions: 10 μg/ml antibody, 30 minutes on ice
[2] = test system: PDX model PA0787 and PA1252 (human pancreatic cancer expressing the G12D Kras mutation); assay: In vivo staining of PDX tumor tissue after i.v. antibody injection (immunohistochemistry); design: species or system nude Balb/c mice; conditions: 10 mg/kg tail vein, 30 minutes
Experimental: Each mouse was inoculated subcutaneously in the right upper/lower flank with primary human tumor xenograft model tumor fragment (2-3 mm in diameter) for tumor development. Once the tumors reached approximately 500 mm^3 the mice were injected with antibodies as described below.
30 minutes later the mice were euthanized, and the tumors were harvested and frozen in optimal cutting temperature (OCT) freezing media for immunohistochemical evaluation.
The tumors were sectioned into 5 um sections on a standard dermatome and processed for immunohistochemistry. Briefly, cryosections were fixed with cold acetone/methanol (at a 1:1 dilution) solution for 5 minutes. After washing sections in PBS for 15 minutes, sections were blocked with 10% normal goat serum at room temperature for 45 minutes and incubated with secondary goat anti-human IgG (Alexa fluro 488 Invitrogen A-11013) at room temperature for 45 minutes. ProLong™ Gold Antifade Reagent with DAPI (Catalog P36931 ThermoFisher Scientific) was added before putting the cover slides on. Images were acquired with the Leica Microsystems DM6B-Z.

[3] = test system: RASless MEFs rescued with G12V K-Ras 4B; assay: Flow cytometry surface staining with anti-K-Ras antibodies; type: cell-based, mouse; conditions: 10 μg/ml antibody, 30 minutes on ice
[4] = test system: cells from normal or fibrotic lung tissue; assay: Flow cytometric analysis of surface K-Ras from primary human tissue; type: cell-based; conditions: single donor
Experimental: Human tissue from cancerous sites, as well as adjacent normal tissue, were banked right after surgical procedure. Tissues were immediately processed according to the following protocol to isolate single cells. Briefly, each tissue was cut into very small segments using a sterile blade. Then tissues were resuspended in RPM11640 complete media (with 10% FBS, 1× penicillin-streptomycin) and run in MACS dissociator (Milteny Biotech) for 2 cycles of 1 min each to initiate dissociation. Next the tissues were digested in digestion media consisting of IMDM media, supplemented with collagenase type 2 (0.5 mg/ml) and DNase (0.5ul/sample). The total digestion media volume used was 7 ml for each tissue size of 1 mg. Next the tissues, immersed in digestion media was shaken at 37° C. for 35 min at 850 rpm. Following digestion, the tissues were run again in gentle MACS dissociator to break up the digested tissue and retrieve single cells. Cells were next washed twice in 1×PBS to eliminate any digesting enzyme and DNase. Cells were passed through a 70 uM strainer and resuspended in RPMI complete media. Single cell suspensions obtained from patients as set forth in Example 1 can be used for flow cytometric analysis.

[5] = test system: MHC Class I-deficient Panc-1 cell line; assay: Surface K-Ras staining of MHC Class I-deficient cells; type: cell-based, human; conditions: beta-2 microglobulin excised by CRISPR-Cas-9
From the text: It has been previously described that peptide fragments of both mutant and wild-type K-Ras can be presented at the cell surface in the context of self MHC Class I (PMID: 36099883, PMID: 27959684, PMID: 34272369).

[6] = test system: RASless MEFs rescued with wild-type K-Ras 4A; assay: Flow cytometry surface staining with anti-K-Ras antibodies; type: cell-based, mouse; conditions: 10 μg/ml antibody, 30 minutes on ice
[7] = test system: human tumor cell line PANC-1; assay: Cell line-derived xenograft model of pancreatic cancer, in vivo ADC experiment; design: species or system Balb/c nude mice; conditions: 10 mg/kg i.v. QW × 2 weeks; gemcitabine 50 mg/kg i.p. BIW × 2 weeks
Experimental: DXd is a protease cleavable linker attached to a derivative of exatecan that acts as topoisomerase I inhibitor. DXd targeted to cancer cells by antibodies as an ADC has been used by FDA-approved […] is a conjugation of anti-Her-2 antibody and deruxtecan. DXd was conjugated via stochastic maleimide conjugation to interchain cysteines of the antibodies. The antibodies were first reduced using 10× molar equivalents of 10 mM TCEP at 37° C. for 90 minutes with shaking. The reduced antibodies were then conjugated with 10× molar equivalents of 10 mM DXd at room temperature for 2 hours. Conjugated antibodies were evaluated for the drug to antibody ratio (DAR) by reducing 10 μg of the crude conjugate with DTT at 37° C. for 30 minutes. The final DAR for the conjugated antibodies was 8. The multimeric state of the conjugated antibodies was evaluated by size exclusion chromatography and confirmed to be monomeric. Conjugated antibodies were purified from unconjugated DXd by dialysis against PBS, pH 5.6 with a 10K molecular-weight cut-off (MWCO) membrane for 48 hours. Next, we utilized a cell line-derived xenograft model of pancreatic cancer, where the human tumor cell line PANC-1 was implanted into Balb/c nude mice. The nude mouse is a naturally mutated mouse that lacks a thymus and hair (nude). […]

Panc-1 = assay: Flow cytometry surface staining with anti-K-Ras antibodies; type: cell-based, human; conditions: 10 μg/ml antibody, 30 minutes on ice
[8] = test system: RASless MEFs rescued with G12D mutant K-Ras 4B; assay: as above; type: cell-based, mouse; conditions: 10 μg/ml antibody, 30 minutes on ice
live Panc-1 cells = assay: High resolution confocal microscopy of surface K-Ras staining; type: cell-based, human
[9] = test system: RASless MEFs rescued with wild-type K-Ras 4B; assay: Flow cytometry surface staining with anti-K-Ras antibodies; type: cell-based, mouse; conditions: 10 μg/ml antibody, 30 minutes on ice

surface staining / binding [3] | surface staining / binding [6] | surface staining / binding [9] | Molecule | surface staining [1] | surface staining (MiaPaca-2) | tumor staining vs isotype control antibody ([2]; PDX model PA0787) | tumor staining vs isotype control antibody ([2]; PDX model PA1252) | K-Ras surface expression, fibrotic vs normal lung tissue [4] | staining compared to the MHC Class I-sufficient parental cell line [5] | tumor growth (tumor volume) [7] | surface staining (Panc-1) | surface staining / binding [8] | surface staining by confocal microscopy (live Panc-1 cells) | surface staining by confocal microscopy (live Panc-1 cells; listed as anti-KRAS antibody)
but not G12V K-Ras 4B | demonstrated binding | demonstrated binding | Human Anti-K-Ras Antibody 1: Full HC SEQ ID NO: 9, full LC SEQ ID NO: 13 (antibody) heavy: EVQLVQSGGGVVQPGRSLRLSCAASGFTSRHPGMHWVRQAPGKGLEWVAVISHDGSKKYYADSVKGRFTISRDNSKNTLFVQLSSLRPEDTAVYYCATSLYSSMDLWGQGTTVTVSSASTKGPSVFPLAPSSKSTSGGTAALGCLVKDYFPEPVTVSWNSGALTSGVHTFPAVLQSSGLYSLSSVVTVPSSSLGTQTYICNVNHKPSNTKVDKKV[human IgG1 Fc with changes left out] light: QSVVTQPPSVSAAPGQKVTISCSGSNSNIGKNYVSWFQQVPGTAPKLLIFEDNQRPSGIPDRFSASKSGTSASLAISGLQSEDEADYYCAAWDDKFGVHWVFGGGTKLTVLGQPKAAPSVTLFPPSSEELQANKATLVCLISDFYPGAVTVAWKADSSPVKAGVETTTPSKQSNNKYAASSYLSLTPEQWKSHRSYSCQVTHEGSTVEKTVAPTECS | also showed surface staining | staining was evident on the surface | better tumor staining | better tumor staining | increase in K-Ras surface expression | identical staining | showed decreased tumor growth over isotype treated mice | staining was evident on the surface | staining was evident on the surface; also recorded: demonstrated binding | Surface staining of live Panc-1 cells with Human Anti-K-Ras Antibody 1 was also observed | distinct KRAS staining
 |  |  | Human Anti-K-Ras Antibody 2: Full HC SEQ ID NO: 17, full LC SEQ ID NO: 21 (antibody) heavy: EVQLLEPGGGVVQPGRSLRLSCTNSGFSFSGYAMHWVRQAPGKGLEWVAVISFDGSHKYYADSVKGRFTISRDNSKNTLYLHMNSLRAEDTAVYYCASGGNYYGSGTIVSHGMDVWGQGTTVTVSSASTKGPSVFPLAPSSKSTSGGTAALGCLVKDYFPEPVTVSWNSGALTSGVHTFPAVLQSSGLYSLSSVVTVPSSSLGTQTYICNVNHKPSNTKVDKKV[human IgG1 Fc with changes left out] light: QSVLTQPASVSGSPGQSITISCTGTSNDIGAYNYVSWYQQHPGKAPKLMIYDVNNRPSGVPDRFSGSKSGNMASLTISGLQAEDDADYYCSSYTSSSTLVVFGGGTKLTVLGQPKAAPSVTLFPPSSEELQANKATLVCLISDFYPGAVTVAWKADSSPVKAGVETTTPSKQSNNKYAASSYLSLTPEQWKSHRSYSCQVTHEGSTVEKTVAPTECS |  | staining was evident on the surface |  |  | increase in K-Ras surface expression |  |  | staining was evident on the surface | staining was evident on the surface |  | 
